Whole data set: some 33,000 sequences, median “E-score (-0.5 to 0.5)” near -0.036, cut for the highest 2% near 0.37. Some of the results follow.
biological target: T1, Yer064c (UniProt P40041); experiment: PBM E-score (8-mer binding enrichment) (E-score (-0.5 to 0.5)); higher = stronger / more preferred TF binding; most listed sequences are background and not binding sites; conditions: protein concentration: 200 nM; construct: GST-full length
T1 sequence: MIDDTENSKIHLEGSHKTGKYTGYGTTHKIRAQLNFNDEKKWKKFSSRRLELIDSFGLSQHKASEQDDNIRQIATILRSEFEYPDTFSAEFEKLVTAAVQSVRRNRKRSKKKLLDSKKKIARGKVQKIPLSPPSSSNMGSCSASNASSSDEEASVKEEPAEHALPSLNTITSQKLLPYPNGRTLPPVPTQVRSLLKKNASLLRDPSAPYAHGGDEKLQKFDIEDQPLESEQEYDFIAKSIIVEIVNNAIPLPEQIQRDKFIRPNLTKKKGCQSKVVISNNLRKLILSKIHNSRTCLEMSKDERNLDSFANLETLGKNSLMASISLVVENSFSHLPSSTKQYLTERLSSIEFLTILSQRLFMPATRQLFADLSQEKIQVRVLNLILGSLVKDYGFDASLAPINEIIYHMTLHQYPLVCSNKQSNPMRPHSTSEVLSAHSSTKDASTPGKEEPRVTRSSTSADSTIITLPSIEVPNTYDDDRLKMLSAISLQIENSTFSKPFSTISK
In short: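 Bound GST-tagged yeast transcription factors, applied at about 100-200 nM to double-stranded universal all-10-mer Agilent arrays, were detected with fluorescent anti-GST. Scans were normalised with masliner. A modified Wilcoxon-Mann-Whitney statistic, the E-score, was assigned to each ungapped eight-base word pooled with its reverse complement by the Universal PBM Analysis Suite.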

Sequence | PBM E-score
GTGCTTGA | 0.0544
CGAACACG | 0.0247
CCCACGCG | -0.157
CAAGTGTG | 0.0948
AAGGGGCT | -0.138
GCGTATCC | -0.0378
CGAAGTCG | 0.286
ACCATAGG | 0.0693
AATAAAAA | 0.109
GAGTTAGA | 0.0494
GATGGTAA | -0.0359
GATTATCA | 0.269
AGTTGGCG | 0.00403
GACAGAGA | -0.0807
CGACGTCG | 0.00223
CGAAGCCG | -0.198
ACATGCTA | -0.181
GGTAATAA | 0.0221
AGAGTCAA | 0.436
AGCAATAT | 0.145
CTAATTAC | 0.101
AGGTAGCA | -0.322
ATGTACGG | -0.179
CTTGTGGA | -0.174
CATGGGAA | -0.155

Sequence | PBM E-score
AAGGAGAC | 0.169
CGCGTTTA | -0.0154
ACGGCCGC | -0.0196
GGAAGGGA | -0.163
GGAGGTTA | 0.0556
AGAAGGGA | -0.186
AAACAACT | -0.0707
GTATATCA | 0.0544
GCCGAGCA | -0.188
AAAGAGGA | -0.125
CACCTCCC | -0.0848
CGGTCAGC | -0.189
AAATTAGC | 0.0202
TTCTGAAA | -0.01
GACGTCTA | 0.0755
ACAACCGG | -0.183
CATTTGCC | -0.215
ATACTGTA | -0.0513
AGGCGCAC | -0.213
CGAGTACC | 0.109
AATGATAC | 0.118
CACTTCAA | -0.0203
CGCCCTTA | -0.0857
CACTGATC | 0.0611
CCTGAAAC | -0.0495

Sequence | PBM E-score
CTTTACCC | 0.105
CATATTCA | 0.111
AGGGTGAA | 0.00212
CGGCATGA | 0.216
CCCTGCTC | -0.186
CTGCGTGC | -0.164
GGAGACCA | -0.176
CTCTAGGC | -0.058
CCGGACGG | -0.0787
CGTAGAAG | 0.0118
GGTTTGAC | 0.122
ATACGTGG | -0.11
TAAATCCA | 0.0243
ATATCTGG | -0.0892
ACTACGAC | 0.302
CTTCATTC | -0.116
CTCCGCAG | 0.00319
CTCGCTCA | 0.141
GCATATAA | 0.143
CACATTGC | -0.0307
CTGCCTTA | -0.099
ATCGGATA | 0.0451
CGTGATCC | -0.251
CACCCTAC | 0.127
CTGGCGCC | -0.331

Sequence | PBM E-score
CCCTAAAG | -0.281
CGGGGAGA | -0.194
CTGAGCTC | 0.0384
AAGCAAGG | -0.116
TACCAGGA | -0.0353
AACCTCAG | 0.0375
TAAAGTCA | 0.413
ATGTAGCA | -0.146
AGAATCGG | -0.0288
CAAGGCCC | -0.192
ACTATATG | 0.182
TTAGTGAA | 0.178
CAAAAGAC | 0.157
GATGCCCA | -0.177
GAGGATGC | -0.231
TATTGCAA | 0.00227
CGCAAAAG | -0.0492
CGTACCTA | -0.123
CATATCCC | -0.0652
CGACTCAC | 0.468
AGGGGAAT | -0.0928
GGAAGCAC | -0.0925
CTTAGAGA | 0.0855
CTAGAGAA | 0.0635
CCCCTTCC | -0.186

Sequence | PBM E-score
ACTAAAGG | 0.261
ATTCACAA | 0.135
GAATGGGC | -0.247
CGCACGCG | -0.213
CAGAGCAC | -0.102
GATCTGGC | -0.202
GGGGGCAC | -0.338
ATCGGTGG | -0.2
ATCCGATG | 0.115
ACCCATCA | 0.219
AGGGCCCA | -0.225
AACTGGCT | -0.28
AGAGCGGG | -0.142
CGAAGGCC | -0.358
AAAAGGCG | -0.251
GATAAGGC | -0.155
AATAAATC | -0.0502
CCTAATCC | -0.33
GAGTTGAA | 0.0253
CATACGAA | -0.0411
CTTCCCGC | -0.123
GTCCCCTA | -0.27
AGTGAACT | 0.0503
ACGTCGCT | -0.0775
CCATAAGG | -0.121

Sequence | PBM E-score
TAAGGTCA | 0.032
AATCGGCG | -0.198
CACTGCAA | 0.0572
CGCCCGGA | -0.175
GGTTCCAC | -0.134
ATTGGGCA | -0.301
AGTTTCCG | -0.0535
CAGTCTAG | 0.0103
ACGGCCCA | -0.251
ATCGCTGG | 0.0196
CTAGGTCA | 0.273
TGAATCAA | 0.419
ATCATCTC | 0.294
ACGTAGAA | 0.133
AAACACCA | -0.00761
GTTCAACA | -0.0217
ATTCCACA | 0.0717
AAAGTCTA | -0.0187
ACTGACGC | -0.0857
GAGAACAA | -0.0452
CACCTTCC | -0.0917
CCCATCAA | -0.00541
TGCTGCCA | -0.325
GTATAGGA | 0.00398
AAGTTCCC | -0.163

Sequence | PBM E-score
GCCCCAGC | -0.293
AGGACTTG | 0.0575
GCGAAGGA | -0.134
ACGAGCGT | -0.0803
CGTCTGGA | -0.00704
AGCCATGC | 0.206
AACTTAGA | -0.0311
AGATGGGG | -0.242
GGATCCTA | -0.217
ATTTCCAA | -0.0555
AAATAGCA | -0.119
GACATTGA | 0.0816
CCATCCAG | -0.139
CTCGCGGA | 0.145
AGCTTTAT | -0.108
AGCTCACA | 0.104
CACTAGAC | 0.0218
ACTGCTAA | 0.059
ATAGTGCA | -0.0217
CCAACCGA | 0.0381
AGGCCCCA | -0.324
GATGCAGA | -0.0836

From the supplement of paper PMC3334620
